Assay results as given in PubChem BioAssay AID1346428 (National Center for Advancing Translational Sciences (NCATS), 2018).
Out of some 48,000 compounds screened, about 1,200 (2.5%) were called active. About 2% were inconclusive and are not listed.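 Rule for the calls: active = activation of at least 60% and not above a set upper limit (about 1 call in 100 departs from these limits); inconclusive = activation of 40% to 60%, or above that upper limit; inactive = activation under 40%.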 The list shows a part of the results.

The compounds below were run against Probable G-protein coupled receptor 32 (Homo sapiens) (UniProt O75388) (assay: qHTS for Agonists of Human Resolvin D1 Receptor DRV1). Details: CHO-K1 GPR32 beta-arrestin PathHunter luminescence, 90 min; at 76.9 µM; stronger effect = higher value; zero percent set by DMSO-only wells.
UniProt O75388, sequence (O75388 whole entry, looked up): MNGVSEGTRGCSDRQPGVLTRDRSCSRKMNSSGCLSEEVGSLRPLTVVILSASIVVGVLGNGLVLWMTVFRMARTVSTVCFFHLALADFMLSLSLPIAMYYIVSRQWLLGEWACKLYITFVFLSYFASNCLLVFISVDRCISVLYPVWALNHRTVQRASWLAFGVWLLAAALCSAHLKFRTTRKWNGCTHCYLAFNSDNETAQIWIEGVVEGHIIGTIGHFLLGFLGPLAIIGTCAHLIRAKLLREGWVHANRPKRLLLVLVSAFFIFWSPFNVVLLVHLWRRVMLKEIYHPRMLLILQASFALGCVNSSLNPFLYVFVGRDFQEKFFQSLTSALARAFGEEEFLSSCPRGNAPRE
How it was run: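 Step 1: seed CHO-K1 GPR32 beta-arrestin cells, 2,500/well, overnight at 37 °C. Step 2: add compounds, 90 min at 37 °C. Step 3: detection reagent, 1 h ambient, then luminescence.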
Note: 0% is about no effect.

activation, inactive:
Cc1ccc(CNC(=O)c2ccc(Cn3c(SCc4ccccc4F)nc4cccnc43)cc2)cc1 -23.1%
CC1CCN(C(=O)Cn2c(=O)oc3cc(S(=O)(=O)N4CCCCC4)ccc32)CC1 29.6%
COc1ccc(CNC(=O)CN(c2ccccc2)S(=O)(=O)N(C)C)cc1 -2.87%
CCOC(=O)c1cc2c(=O)n3ccccc3nc2n(CCCOC)c1=NC(=O)C(C)Oc1ccccc1 (stereo not given) -2.96%
Cc1cc(=O)n(Cc2cccc(Cl)c2)c2c1c(C)nn2-c1ccccc1 -12.1%
Cc1cc(C)cc(NC2=CC(c3cccc(F)c3)N(c3cc(C)cc(C)c3)C2=O)c1 (stereo not given) 2.35%
CCN(CC)C(=O)c1sc2c(c1C)c(=O)n(-c1ccccc1)c(=O)n2CC(=O)Nc1ccc(C)cc1C -5.5%
Cc1cccc(-n2c(=O)c3c4c(sc3n3cnnc23)CCCC4)c1 9.05%
CCN1CCN(c2c(S(=O)(=O)c3ccc(C)c(C)c3)cnc3cc(OC)c(OC)cc23)CC1 -14.9%
CCOc1ccc(CC(=O)NCCc2sc3nc(-c4ccc(OC)cc4)nn3c2C)cc1 -18.1%
CCN(CC)S(=O)(=O)c1nnc(NC(=O)COc2ccc(Cl)cc2)s1 45.9%
CCCCSc1ncnc2c1c(-c1ccccc1)cn2-c1cccc(F)c1 2.62%
CCN(CC)CCNC(=O)c1ccc2c(c1)sc1nc(-c3ccc(F)cc3)cn12 -3.59%
CCOC(=O)Cn1cnc2onc(-c3ccc(F)cc3)c2c1=O -0.513%
COc1ccc(C(CNC(=O)COc2ccc(Cl)c(C)c2)N2CCOCC2)cc1 (stereo not given) -14.2%
CC(=O)Nc1cc(NC(C)=O)cc(-c2nc3ccccc3[nH]2)c1 48.4%
Cc1cc(C)cc(NS(=O)(=O)c2ccc3c(c2)NC(=O)C(C)S3)c1 (stereo not given) -11.4%
CCOC(=O)c1c(C)oc2nc(C)nc(Nc3ccc(CC)cc3)c12 -5.84%
CCn1c(C(=O)N2CCC(C(=O)NCCc3ccc(OC)cc3OC)CC2)cc2sccc21 -6.39%
CCOC(=O)C(CC)Sc1ccc2nnc(CCNS(=O)(=O)c3ccc(C)cc3)n2n1 (stereo not given) -17%
COc1cccc2c1Oc1ncccc1N(C(=O)Nc1ccc(F)c(Cl)c1)C2 -25.6%
CCc1ccc(S(=O)(=O)c2nnn3c2nc(NC2CCCCCC2)c2sccc23)cc1 -3.07%
Cc1c(C(=O)NCc2ccccc2Br)oc2c1-c1[nH]ncc1CC2 -1.66%
O=C(O)CC[C@@H](C(=O)O)N1C(=O)c2ccccc2C1=O -1.6%
CCN1CCN(c2c(S(=O)(=O)c3ccc(OC)cc3)cnc3cc(OC)c(OC)cc23)CC1 -10.9%
COc1ccccc1Cc1nc2ccccc2[nH]c1=O -2.13%
COc1ccc(NC(=O)c2ccc(-c3nc(CSc4ccccc4)c(C)o3)cc2)cc1OC 15.9%
Cc1ccc(C)c(CN2C(=O)c3ccccc3S(=O)c3ccc(C(=O)NCc4ccccc4)cc32)c1 (stereo not given) -0.265%
CCOCCCNC(=O)C1CCC(CNS(=O)(=O)c2ccc(NC(C)=O)cc2)CC1 (stereo not given) -8.08%
CCOC(=O)c1ccc(N2C(=O)c3n[nH]c(-c4cccs4)c3C2c2cccc(F)c2)cc1 (stereo not given) -13.9%
CCOc1ccccc1NC(=O)C(CC(C)C)NS(=O)(=O)c1ccc2c(c1)CCN2C(C)=O (stereo not given) -5.92%
Cc1oc(-c2cccc(Br)c2)nc1CN1CCC(C(=O)NCCc2ccc(Cl)cc2)CC1 -9.56%
CCc1ccc(NC(=O)CC2C(=O)OCCN2CC)cc1 (stereo not given) 31.4%
CC(C)CNC(=O)CCSc1nc(-c2ccc3c(c2)OCO3)cc(C(F)(F)F)n1 -0.977%
CCc1ccccc1NC(=O)Cn1ncc2c(C)n(Cc3ccccc3F)c(C)c2c1=O -1.84%
Cc1ccc(C)c(N2CCN(c3ccc(NC(=O)c4cccs4)cc3C(=O)O)CC2)c1 -11.2%
O=C(Cn1c(=O)n(Cc2nc(-c3ccccc3)no2)c(=O)c2cc3c(cc21)OCO3)Nc1ccc(Cl)cc1 6.92%
CC(C)[C@H](N)C(=O)OCCOCn1cnc2c(=O)[nH]c(N)nc21 -7.48%
CCN(CC)CCCNC(=O)c1c(C)oc2ncn(CC(C)C)c(=O)c12 -10.8%
Cn1c(=O)n(C)c2cc(NS(=O)(=O)c3ccc(Br)cc3)c(NCc3ccccc3)cc21 28.4%
CCc1ccc(-n2nc(C)c3c(C)cc(=O)n(CC(=O)Nc4ccc(C)c(F)c4)c32)cc1 -0.16%
CCOc1ccc(-n2c(=O)c3c(C)c(C)sc3n(CC(=O)c3ccccc3)c2=O)cc1 5.11%
CCCCN(C)S(=O)(=O)c1cc(-c2nnc3c4ccccc4c(C)nn23)ccc1C 21%
CN(C)c1ccc(NC(=O)CCSc2nc(-c3ccco3)cc(C(F)(F)F)n2)cc1 -36.7%
COc1cc(Br)c(C2CC(=O)Nc3cc(OC)c(OC)c(OC)c32)cc1OC (stereo not given) -9.21%
CC1CCc2c(sc(NC(=O)CCCOc3ccc(C(C)(C)C)cc3)c2C(N)=O)C1 (stereo not given) -0.358%
Cc1ccc(CNC(=O)c2ccc(-n3c(C)cc4c3CCCC4)cc2)cc1 -11%
CC1CCN(c2oc(-c3cccs3)nc2S(=O)(=O)c2ccc(Cl)cc2)CC1 -6.94%
COc1cc(OC)c(NC(=O)CSc2nccn2C)cc1Cl -24%
COc1ccc2oc(-c3ccc(C)c(NC(=O)c4cccnc4)c3)nc2c1 -8.26%
O=C(CSc1nc2cc(C(=O)NC3CCCC3)ccc2c(=O)n1CC1CCCO1)c1ccc(F)cc1 (stereo not given) 23.9%
CNC(=O)c1ccc2c(c1)N=C(C)c1cc(C)ccc1S2 12.3%
Cc1ccc(C)c(S(=O)(=O)c2cn(Cc3ccccc3)c3cc(F)c(F)cc3c2=O)c1 -16.6%
Cc1ccc(OCC(=O)Nc2ccc3nc(SCC(=O)N4CCCC4)sc3c2)cc1 -6.43%
CCOC(=O)c1c(SCC(=O)Nc2nc3ccc(C)cc3s2)nc(=O)[nH]c1C 4.3%
CCCC(=O)OC1=CN(Cc2ccccc2)S(=O)(=O)c2ccccc21 -23.4%
O=C(Cn1cc(SCc2cccc(F)c2)c2ccccc21)N1CCOCC1 -21.9%
CC(C)(C)C1CCc2oc3ccc(NS(=O)(=O)c4cc(Cl)ccc4Cl)cc3c2C1 (stereo not given) -34.1%
Cc1cc(C)c2sc(N(Cc3cccnc3)C(=O)CCS(=O)(=O)c3ccccc3)nc2c1 -6.03%
Cc1cccc(CSc2cn(CC(=O)N3CCCCC3)c3ccccc23)c1 -25.4%
O=C(c1cc(-c2ccc(Br)cc2)n[nH]1)N1CCN(S(=O)(=O)c2ccc(Br)cc2)CC1 4.45%
CN(C)C(=N)N=C(N)N -3.99%
CCC(=O)N1N=C(c2ccc(OC)cc2)CC1c1cn(-c2ccccc2)nc1-c1cccs1 (stereo not given) 3.19%
CCOC(=O)c1cnc2ccc(C)cc2c1Nc1ccc(OCc2ccccc2Cl)cc1 -8.49%
COc1ccccc1N(CC(=O)NCCSCc1ccccc1Cl)S(C)(=O)=O 21.1%
CCOc1ccc(N(c2nc(-c3ccc(OC)c(OC)c3)no2)c2nc(-c3ccc(OC)c(OC)c3)no2)cc1 10.3%
O=C(Cn1ccn(-c2ccc(F)cc2)c(=O)c1=O)NCCc1ccccc1 -9.2%
CC(=O)N1c2ccc(S(=O)(=O)N3CCN(c4ccc(C)cc4C)CC3)cc2CC1C (stereo not given) 8.13%
COC(=O)CSc1nc2c(cnn2-c2ccc(F)cc2)c(=O)[nH]1 5.8%
Brc1c(Br)c(Br)c2n[nH]nc2c1Br 27.8%
COCC(=O)N1c2nc(C(C)C)nn2C2(CCCCC2)[C@@H]2CCCC[C@@H]21 -20.6%
CCOC(=O)c1sc(NC(=O)c2cc(CC)on2)c(C(=O)OCC)c1C 18.9%
Cc1ccc(NS(=O)(=O)c2ccc3[nH]c4c(c3c2)CCCCCC4)cc1Cl 18.6%
CCCOC(=O)c1ccc(NC(=O)Cc2csc(C)n2)cc1 -8.29%
Cc1c(C(=O)NCc2ccccc2)sc2nc3n(c(=O)c12)CCC3 -11.6%
CCC(=O)N1CCc2cc(Br)cc(S(=O)(=O)NCc3ccc(Cl)cc3)c21 19.3%
Cc1cccc(N2C(=O)CSC23C(=O)N(Cc2cccc(C(F)(F)F)c2)c2ccccc23)c1 (stereo not given) -4.93%
CSc1nc2sc3c(c2c(=O)n1-c1ccccc1C)CCCC3 -15.5%
C=Cc1ccc(CSc2nc(-c3ccccc3Cl)nc3c2Cc2c(CO)cnc(C)c2O3)cc1 15%
Cc1nc(N2CCCC2)c2c(C(=O)N3CCN(c4cccc(Cl)c4)CC3)c(C)oc2n1 -18.1%
COc1ccc(N2CCN(C(=O)c3ccc(CS(=O)(=O)c4ccc(Br)cc4)o3)CC2)cc1 4.99%
Cc1ccc(N2CC(C)Cn3c2nc2c3c(=O)n(CC(=O)O)c(=O)n2C)cc1 (stereo not given) -0.544%
CCN(c1ccccc1)c1nnc(NC(=O)Nc2cccc(Br)c2)s1 1.6%
Cc1cc(C)cc(-n2ccn(CC(=O)Nc3ccccc3C(F)(F)F)c(=O)c2=O)c1 -17.3%
O=C1CC(c2nc3ccccc3n2CCCOc2ccccc2)CN1c1ccc(F)cc1 (stereo not given) 8.97%
